The list shows a part of the results.
T1: UNK ZnF1-3 (human, UniProt Q9C0B0 31-174)
T1 sequence: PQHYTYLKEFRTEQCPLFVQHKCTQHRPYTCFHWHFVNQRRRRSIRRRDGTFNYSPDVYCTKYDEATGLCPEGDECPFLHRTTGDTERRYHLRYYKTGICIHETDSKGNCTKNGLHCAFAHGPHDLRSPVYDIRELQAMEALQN

B1: 107600220_107600950_2570_CDS_ENSG00000091136_ENST00000393561|human|control|control (ssRNA)
RNA: GGGAGUUCUACAGUCCGACGAUCCUGGCCUCCGUUGGGAUCACACACGGAACUUAACGAACCCUGAGGGUCGCAUUCACAAGCCAGGCCUGUCUGGUGUAACAGGGCAGAAAUGCUAAAGAUGAUGUUUCUGCAAACAUCUGUCAACAGAGGAUUGAGCAUCA
B2: chr7:125341739:125341740:-_ENSMUSG00000030655_ENSMUST00000032891|mus_mus|motif|central (ssRNA)
RNA: GGGAGUUCUACAGUCCGACGAUCUCUGUAUAGAACAUCUGUUACGUAUGCCUCUGUAAUUGGUGGACCCCGAAUUGGGCGGAAGCGUUCCCCAAUGCUCCUCACCACAGUACUGAACACACGGAGAAGUGCUGCCAGCUUUGGCAACAGAGGAUUGAGCAUCA
B3: chr10:36854569:36854570:-_ENSMUSG00000069662_ENSMUST00000092584|mus_mus|motif|central (ssRNA)
RNA: GGGAGUUCUACAGUCCGACGAUCAAACCACAGCCAAAUGUACUUUUGAUGGCAUGCAAGGCCUUCCUAAAAAAUUAAUCGGAGACCGGGAAGUCAGCCUCAGAACAUAAAAAAACACAACAAAUUUGUACAUUUUAUUCACAUCAACAGAGGAUUGAGCAUCA
B4: chr8:121872745:121872746:+_ENSMUSG00000031839_ENSMUST00000034300|mus_mus|motif|central (ssRNA)
RNA: GGGAGUUCUACAGUCCGACGAUCCUUUGUGGGGACAGUGACAUAGAUUGCCUUCUAAGUCAUCAAAACUGGCUUUGAGGCGGAGCCUCCAGACACCAGAAUCCUGAAUGUAAAUCUGUCUUCUUUAAUCAAUAAUAGAACUCACAACAGAGGAUUGAGCAUCA
B5: chr7:54825262:54825263:-_ENSG00000132432_ENST00000352861|hu_hu|hu_hu_hu_mus_False|78_78 (ssRNA)
RNA: GGGAGUUCUACAGUCCGACGAUCCUGCCGGCUGGGCUCCACAAACUGCAUUACCUGCAUGACUGCCGUUGGAUGGCGGAUUGAGAGCGUAGAGACACGUAGCUCAGGAGAGAACCGAGCCCAACGGAACCGGAAGCUGGCAACCAACAGAGGAUUGAGCAUCA
B6: 21160599_21167274_402_CDS_ENSMUSG00000024317_ENSMUST00000052396|mouse|control|control (ssRNA)
RNA: GGGAGUUCUACAGUCCGACGAUCAUGUAUUCCACUUUCUCUCAUUGCAGUCAGGAAACAUUUUCUACAGAAAACGUGCUGACAGGCCGCGGUCCGCACCGGCGUCUUGAGCACCUCCUGACAGACAGGGCAGUAGAAAUCAUCCAACAGAGGAUUGAGCAUCA
B7: chr1:226180700:226180701:-_ENSG00000143751_ENST00000272091|hu_mus|FALSE|FALSE (ssRNA)
RNA: GGGAGUUCUACAGUCCGACGAUCAAGUGCUCGAAGCAUAGACCCAAAACCUCCUUUCCCCCCACGAAGCCUGGGCUCCAAACUGUACACGGCUCCAUGCUGCACCUUAUCACCGGCAUUAACGAGGACUCCAUUGCACGUCACCAACAGAGGAUUGAGCAUCA
B8: chr1:25669491:25669492:+_ENSG00000183726_ENST00000374358|perfect_dup|motif|central (ssRNA)
RNA: GGGAGUUCUACAGUCCGACGAUCACAGGCAUGGUAUGAGUGGUUGAAAUCUUUCAUGGUGGGAUAAAUAACAGCUGCAUCGGUGAUAAUCCACCAGCCUGUAAAAAAUAGUACACCAGCAGCAAUGGAAGCAAUAGUAUUGCGCAACAGAGGAUUGAGCAUCA
B9: chr11:120422317:120422318:-_ENSMUSG00000025130_ENSMUST00000026122|mus_mus|motif|central (ssRNA)
RNA: GGGAGUUCUACAGUCCGACGAUCGCUGACCUGGACAGAGAUCCCUUUCCAAAAUUGAAAAGCAAAAGAAGAGACAGGUCGGAGUGUACGUGUGUCAGAUGAGUGUGGCUUCAGAAAGAUUCCCUGGGUUCUGAUGGCGCUCCCCAACAGAGGAUUGAGCAUCA
B10: chr3:176740097:176740098:-_ENSG00000177565_ENST00000430069|hu_mus|hu_hu_hu_mus_True|1_68 (ssRNA)
RNA: GGGAGUUCUACAGUCCGACGAUCUGUUUUGUAUACCACAAAAGGAGGCACUUUCAGUAUCUGCAAAAGGUAUUUAAUCCUAAAACAUACUCACCUAGAGGAUAACUCAGGAAAACAAUCUGUUACACUCUAAGACCUUAGGAACAACAGAGGAUUGAGCAUCA
B11: chr18:38101097:38101098:-_ENSMUSG00000024454_ENSMUST00000043498|mus_mus|FALSE|FALSE (ssRNA)
RNA: GGGAGUUCUACAGUCCGACGAUCGGUGCUGACAUCUGGAUGGAGUGUGAAAUCUGGGGCAAAGUACUCGAAGUAUUCACUAUAGGGAAGUUCCUCACUAAUGGCCUCUUCUACCAGCAGAGAUGUUUCAUAUGUCCAACACCGCAACAGAGGAUUGAGCAUCA
B12: chr1:33859959:33859960:-_ENSMUSG00000042197_ENSMUST00000044455|mus_mus|FALSE|FALSE (ssRNA)
RNA: GGGAGUUCUACAGUCCGACGAUCCCCUUUGUCAUCAGCUGACGGAGAUUUGCAGUCAGACUCCUCUUCAACUGUGGAUAAACUGUCCUCCUUAGAGCUGGAGAUAUCCCAAGGAACUGACGAGCUCUCACUUGGCCUAGAAUGCAACAGAGGAUUGAGCAUCA
B13: chr3:31621302:31621303:+_ENSG00000163527_ENST00000295770|hu_hu|motif|central (ssRNA)
RNA: GGGAGUUCUACAGUCCGACGAUCUAAAAUCCAAUGAAUAAGGCCAGCGGUUAUCAUCAACCCUGGGUAAACAGUACCACCGGCGGUUCUUCCUAGUGGAUACCAUGCUCUUUCAUCAAACCAAUUUAAAAAUUCAUAGAACCCCAACAGAGGAUUGAGCAUCA
B14: chr1:107181519:107181520:-_ENSMUSG00000047496_ENSMUST00000058688|mus_hu|FALSE|FALSE (ssRNA)
RNA: GGGAGUUCUACAGUCCGACGAUCGUGUCUUUGCAGUGCAGGUAAUGGCAAGCUCACAGGCAUCCAGUACUCACAGGUGUGUUCAUUUCUGUAUCUGUCACCGAGUCUCUUUCACCCCUUCUGCGUGAUGACAUCAAGUGGAAACAACAGAGGAUUGAGCAUCA

Target: T1, UNK ZnF1-3
Test: nsRBNS (natural sequence RNA bind-n-seq); RBNS binding buffer (assumed for nsRBNS): 25 mM Tris pH 7.5, 150 mM KCl, 3 mM MgCl2, 0.01% Triton X-100, 500 ug/ml BSA, 20 U/ml SUPERase-In, 4 C; UNK is unkempt and MSI1 is Musashi-1; names of the RNAs are library labels; protein concentration not given here; high values mean tight binding

Binder | binding signal
B1 | 1.05 enrichment R
B2 | 0.822 enrichment R
B3 | 1.7 enrichment R
B4 | 1.23 enrichment R
B5 | 1.46 enrichment R
B6 | 0.889 enrichment R
B7 | 1.28 enrichment R
B8 | 1.81 enrichment R
B9 | 1.35 enrichment R
B10 | 0.769 enrichment R
B11 | 1.57 enrichment R
B12 | 0.942 enrichment R
B13 | 1.12 enrichment R
B14 | 0.64 enrichment R
